In US11312769B2, “Anti-TMEFF1 antibodies and antibody drug conjugates” (Bluefin BioMedicine, Inc., priority 2017, dated 2022):

Test system: hTMEFF1-ECD recombinant deletion mutants
Test: Binding domain determination with hTMEFF1-ECD deletion mutants (Octet)
Parameters: species or system human; key: FS1—follistatin domain 1; FS2—follistatin domain 2
Conditions: full length TMEFF1 ECD vs ΔFS1, ΔFS2, ΔFS1&FS2
Text: TMEFF1 recombinant proteins expressing 3 different deletion mutants, AFS1 (AFollistatin Domain 1), AFS2 (AFollistatin Domain 2) or AFS1&FS2 were used to identify binding domains among different antibodes using an Octet Red instrument with Anti-Penta-His (HIS 1K) biosensors. Expression of the 3 deletion mutants was confirmed by WB analysis. 100 ngs of purified TMEFF1 ECD was run along with unpurified supernatant of transfected CHO cells with the different deletion mutants. HIS 1K biosensors were loaded by submerging the biosensors into wells containing 10 ug/ml of full length TMEFF1 or one of 3 different deletion mutants (AFS1, AFS2 or AFS1&FS2) for 60 seconds. Following the loading step, the biosensors were then dipped for 30 seconds in PBS before immersion for 30 seconds in 200 ul of unpurified recombinant antibodies for 30 seconds. The biosensors were then dipped briefly (30 seconds) in PBS to observe any dissociation. Samples were determined to show binding or no binding by comparing to a control well that contained no recombinant antibody. Differential binding to the deletion mutants allowed for determination of binding sites on TMEFF1 recombinant protein. For cases where the antibody bound all 3 recombinant proteins, the binding is outside of the deleted domains. For the case where binding is observed only on full length TMEFF1 and AFS2, the antibody is binding in the ΔFS1 domain.
26 of the identified antibodies were checked for epitope domain binding by Octet™ using the hTMEFF1-ECD recombinant deletion mutants (see Table 7, below).

| Binding region (epitope domain binding) | Molecule |
| --- | --- |
| FS1 | 6C11: human anti-TMEFF1 IgG1 antibody; VH SEQ ID NO: 56, VL SEQ ID NO: 60 (antibody, V domains shown) VH: QVQLQQSGPGLVKPSQTLSLTCAISGDSVSSNSAAWNWIRQSPSRGLEWLGRTYYRSKWYNDYPVSVKSRITINPDTSKNQVSLQLNPVTPEDTAVYYCTREQGYSSSRYYYYYGMDVWGQGTTVTVSS VL: [letters of about 120 residues omitted] |
| FS1 | 7F12: human anti-TMEFF1 IgG1 antibody; VH SEQ ID NO: 103, VL SEQ ID NO: 106 (antibody, V domains shown) VH: QVQLVESGGGVVQPGRSLRLSCAASGFTFSIYGMHWVRQAPGKGLEWVAIIWYDGSDKYYADSVKGRFTISRDNSKNTLYLQMNSLRAEDTAVYYCARDPYTTSLDYWGQGTLVTVSS VL: [letters of about 100 residues omitted] |
| FS1 | 43A12H: human anti-TMEFF1 IgG1 antibody; VH SEQ ID NO: 49, VL SEQ ID NO: 53 (antibody, V domains shown) VH: QVQLVESGGGVVQPGRSLRLSCAASGFTFRSYGMHWVRQAPGKGLEWVAVIWYDGSIKYYADSVKGRFTISRDNSKNTLYVQMNSLRAEDTAVYYCARDRDYFGSGYYSNVRYYYYGMDVWGQGTTVTVSS VL: [letters of about 100 residues omitted]PLTFGGGTKVEIK |
